Laboratory results published in PubChem BioAssay AID1347165 (National Center for Advancing Translational Sciences (NCATS), 2019).
In all, about 220,000 compounds went through this assay and about 5,700 (2.6%) were called active. Inconclusive means that the source gave no clear call. Such entries were picked first, then a sample of the others. Calls follow the shape of the dose curve; as a rule, active = well fitted inhibition curve with a large enough effect; inconclusive = small, poorly fitted or top-dose-only effect; inactive = no such curve, though single readings can be large or run the other way. Where the call is inconclusive, the potency comes from a doubtful curve fit.

biological target: Lysine-specific demethylase 5B (Homo sapiens) (UniProt Q9UGL1); assay: Primary screen for KDM5B Histone Demethylases FDH-coupled qHTS; details: FDH-coupled NADH fluorescence (FDH is formaldehyde dehydrogenase); activity change, negative = inhibition: at 57.7 µM (top of the series) unless noted; also: nearly all actives have a fitted effect of over 70% in size; as to activity change, negative = inhibition: 0% is about no effect
Method in brief: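 Inhibition is measured as reduced NADH fluorescence generation from FDH coupling to formaldehyde release. Truncated KDM5BΔAP at 200 nM final acts on H3K4me3 peptide (12.5 µM in substrate mix) in pH 7.5 HEPES buffer with Tween-20, 30 min, room temperature.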
Potency is read from the fitted curve at half-maximal effect; tags tell the direction and shape of the fitted curve.

Chain of UniProt Q9UGL1 (Q9UGL1 whole entry, looked up, the tested form may be a part): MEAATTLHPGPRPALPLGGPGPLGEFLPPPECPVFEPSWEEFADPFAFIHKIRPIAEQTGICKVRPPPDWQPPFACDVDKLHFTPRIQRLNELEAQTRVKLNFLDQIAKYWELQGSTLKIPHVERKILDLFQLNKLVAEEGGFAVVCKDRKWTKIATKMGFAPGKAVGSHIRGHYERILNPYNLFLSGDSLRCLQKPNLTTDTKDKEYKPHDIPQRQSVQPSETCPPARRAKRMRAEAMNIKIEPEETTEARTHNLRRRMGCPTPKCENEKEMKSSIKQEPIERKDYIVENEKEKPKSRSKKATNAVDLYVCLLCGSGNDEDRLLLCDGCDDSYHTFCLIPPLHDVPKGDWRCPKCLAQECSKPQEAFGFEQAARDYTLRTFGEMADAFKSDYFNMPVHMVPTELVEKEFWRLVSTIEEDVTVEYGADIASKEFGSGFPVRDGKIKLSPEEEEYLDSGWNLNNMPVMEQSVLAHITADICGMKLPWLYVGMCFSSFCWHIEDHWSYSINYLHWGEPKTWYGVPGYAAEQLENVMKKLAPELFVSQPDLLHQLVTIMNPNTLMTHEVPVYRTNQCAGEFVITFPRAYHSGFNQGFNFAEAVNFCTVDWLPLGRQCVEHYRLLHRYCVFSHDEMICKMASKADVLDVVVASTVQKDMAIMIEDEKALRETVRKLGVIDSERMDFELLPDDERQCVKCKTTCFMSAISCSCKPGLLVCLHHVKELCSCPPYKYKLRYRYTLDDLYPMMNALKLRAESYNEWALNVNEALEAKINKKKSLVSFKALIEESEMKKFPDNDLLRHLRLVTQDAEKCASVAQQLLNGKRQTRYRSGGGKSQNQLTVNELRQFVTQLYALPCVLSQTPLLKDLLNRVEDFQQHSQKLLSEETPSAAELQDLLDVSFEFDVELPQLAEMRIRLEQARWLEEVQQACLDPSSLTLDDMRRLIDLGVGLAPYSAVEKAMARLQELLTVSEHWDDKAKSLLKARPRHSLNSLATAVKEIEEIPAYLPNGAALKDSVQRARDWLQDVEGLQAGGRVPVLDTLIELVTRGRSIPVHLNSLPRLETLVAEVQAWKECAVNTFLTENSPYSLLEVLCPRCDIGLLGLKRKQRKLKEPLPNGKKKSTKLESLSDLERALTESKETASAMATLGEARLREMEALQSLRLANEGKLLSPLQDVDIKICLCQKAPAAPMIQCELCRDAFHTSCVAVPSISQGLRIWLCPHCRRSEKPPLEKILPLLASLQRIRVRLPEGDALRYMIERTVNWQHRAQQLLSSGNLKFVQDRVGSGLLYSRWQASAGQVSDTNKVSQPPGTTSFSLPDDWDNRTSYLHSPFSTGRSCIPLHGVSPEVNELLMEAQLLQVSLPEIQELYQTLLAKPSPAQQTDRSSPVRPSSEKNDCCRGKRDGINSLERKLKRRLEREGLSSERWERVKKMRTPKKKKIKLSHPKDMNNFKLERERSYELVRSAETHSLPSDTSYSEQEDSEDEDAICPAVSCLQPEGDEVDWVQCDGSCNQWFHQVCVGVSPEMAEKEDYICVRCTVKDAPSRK

| SMILES | Potency | activity change, negative = inhibition |
| --- | --- | --- |
| COc1cccc(CN2CCCCC2c2nc(CCOCC3CCOCC3)no2)c1 (stereo not drawn) | inconclusive: 35.5 µM [inhibitor, partial curve, poor fit] |  |
| Cc1ccc(C)c(NC(=O)C(c2ccccc2)N2CCC(c3nc(C4CC4)n[nH]3)CC2)c1 (stereo not drawn) | inactive |  |
| CCOc1ccc(CCNc2nc3ccccc3n3c(C)nnc23)cc1OCC | inconclusive: 28.2 µM [inhibitor, partial curve, poor fit] |  |
| COc1ccc(C(=O)Nc2nnc(C(C)C)s2)cc1OC | inconclusive: 25.1 µM [inhibitor, single point] |  |
| COc1ccccc1CNC(=O)C[C@@H]1c2nc(-c3cccnc3)sc2C[C@@H]2[C@](C)(CO)[C@H](O)CC[C@]21C | active: 25.1 µM |  |
| COc1cc(OC)c2c(C)c(CC(=O)N3CCC(O)(c4ccc(Cl)cc4)CC3)c(=O)oc2c1 | inconclusive: 1 µM [inhibitor, full curve, poor fit] |  |
| COCc1ncc(CN2CC[C@@H](c3ccc4ccccc4c3)[C@H](O)C2)cn1 | inconclusive: 11.2 µM [inhibitor, partial curve] |  |
| COc1ccccc1-c1noc(CCCC(=O)NCc2ccco2)n1 | inactive |  |
| Cc1cccc(C)c1OCc1cc(=O)n2c3c(sc2n1)CCCC3 | inconclusive: 35.5 µM [inhibitor, partial curve, poor fit] |  |
| COc1ccc2c(ccn2CCC(=O)NCc2ccccc2OC)c1 | inactive |  |
| Cc1nc(-c2ccccc2)n(Cc2nc(-c3ccc(OC(C)C)cc3)oc2C)c(=O)c1CCO | inconclusive: 31.6 µM [inhibitor, single point] |  |
| Cc1ccc([S+](=O)([O-])c2nnn3c2nc(N2CCC(F)CC2)c2ccccc23)cc1C | inconclusive: 39.8 µM [inhibitor, partial curve, poor fit] |  |
| COc1ccccc1CN1CCCc2nc(C)nc(-c3ccc(O)cc3)c2C1 | inactive |  |
| COc1ccc(-n2cc(-c3ccccc3)c3c(NC4CCCC4)ncnc32)cc1 | inconclusive: 31.6 µM [inhibitor, partial curve, poor fit] |  |
| O=C(O)c1ccc(Nc2nc(-c3ccc(Cl)cc3)cs2)cc1O | inactive |  |
| Cn1c(=O)n(Cc2cccc(Br)c2)c(=O)c2c1ncn2Cc1ccccc1 | inactive |  |
| OC1COc2ccccc2OCCOCCOc2ccccc2OC1 | inactive |  |
| Cc1ccccc1C(=O)Nc1cccc(C(=O)OCc2cc(=O)n3ccsc3n2)c1 | inconclusive: 15.8 µM [inhibitor, partial curve, poor fit] |  |
| O=C(c1ccoc1)N1CCCN(c2nnc3ccc(Cl)cn23)CC1 | inconclusive: 22.4 µM [inhibitor, partial curve] |  |
| COc1ccc(CNC(=O)c2nc(CC(=O)Nc3cccc4ncccc34)no2)cc1 | inconclusive: 25.1 µM [inhibitor, partial curve, poor fit] |  |
| Cc1ccc(C(=O)COC(=O)C(Cc2c[nH]c3ccccc23)NC(=O)c2ccc(C(C)(C)C)cc2)cc1 (stereo not drawn) | inconclusive: 5.01 µM [inhibitor, partial curve, poor fit] |  |

| SMILES | Potency | activity change, negative = inhibition |
| --- | --- | --- |
| CSc1ccc(Cn2nnc(C(=O)Nc3ccc(C)cc3Cl)c2N)cc1 | inconclusive: 1.12 µM [inhibitor, full curve, poor fit] |  |
| COc1ccc2c(C)c(CC(=O)Nc3ccc(Cn4cncn4)cc3)c(=O)oc2c1 | inconclusive: 1.78 µM [inhibitor, partial curve, poor fit] |  |
| CCOC(=O)C(C)Sc1nc(-c2ccccc2Cl)cc(-c2ccccc2)c1C#N (stereo not drawn) | inconclusive: 28.2 µM [inhibitor, partial curve, poor fit] |  |
| Cc1cc(=O)oc2cc(OCc3nc(CC(C)C)no3)ccc12 | inconclusive: 31.6 µM [inhibitor, partial curve, poor fit] |  |
| CCc1cccc(NC(=O)Cn2c(=O)n(-c3cccc(Cl)c3)c(=O)c3c2c2cc(C)ccc2n3C)c1 | inconclusive: 25.1 µM [inhibitor, partial curve, poor fit] |  |
| CC(C)c1ccc(S(=O)(=O)N2CCN(C(=O)CSc3nnnn3C3CCCC3)CC2)cc1 | inconclusive: 39.8 µM [inhibitor, single point] |  |
| CCc1nn2c(=O)cc(COC(=O)c3ccc(NC(=O)COc4ccc(C)cc4)cc3)nc2s1 |  | inconclusive: -30.6% [inhibitor] |
| Cc1cc(N2CCOCC2)nc2ccc(NC(=O)Nc3ccccc3)cc12 | inconclusive: 35.5 µM [inhibitor, partial curve, poor fit] |  |
| COC(=O)C1=C(C)C(C(C)=O)(C(=O)OC)NC(C)=C1c1ccccc1Cl (stereo not drawn) | inconclusive: 35.5 µM [inhibitor, partial curve, poor fit] |  |
| Cc1ccc2cccc(OCCOc3ccc(C#N)cc3)c2n1 | inconclusive: 15.8 µM [inhibitor, partial curve, poor fit] |  |
| Cc1cc(NC(=O)C(C)OC(=O)c2cc3c(s2)CCCC3)no1 (stereo not drawn) | inactive |  |
| Cn1nc(C(=O)N2CCN(c3cccc(Cl)c3)CC2)c2ccccc2c1=O | inactive |  |
| COc1ccc(Cl)cc1CSc1ncn[nH]1 | inconclusive: 2.51 µM [inhibitor, full curve, poor fit] |  |
| O=C(O)CNS(=O)(=O)c1ccc(C(=O)/C=C/c2ccc(Cl)cc2)cc1 | inconclusive: 31.6 µM [inhibitor, single point] |  |
| Nc1cccnc1Sc1ccccc1 | inconclusive: 22.4 µM [inhibitor, partial curve, poor fit] |  |
| Cc1nnc(-c2cc(-c3cccc(O)c3)ccn2)n1-c1ccccc1 | inactive |  |
| CN(Cc1ccccc1)S(=O)(=O)c1ccc2[nH]c3c(c2c1)CCCCC3 | inconclusive: 15.8 µM [inhibitor, partial curve, poor fit] |  |
| CCN1CCN(C(c2ccc(C)cc2)c2c(O)cc(C)n(Cc3ccco3)c2=O)CC1 (stereo not drawn) | inconclusive: 44.7 µM [inhibitor, single point] |  |
| COc1ccc(-n2nc(C(=O)O)c(=O)n(C)c2=O)cc1 | inconclusive: 25.1 µM [inhibitor, partial curve, poor fit] |  |
| Cc1noc(C)c1CN[C@@H]1CCC[C@@H](C(=O)N2CCN(C)CC2)CC(=O)N(C)C1 | inactive |  |
| CCOC(=O)C1=C(C)OC(N)=C(C#N)C1c1cccc2ccccc12 (stereo not drawn) | inconclusive: 39.8 µM [inhibitor, single point] |  |

| SMILES | Potency | activity change, negative = inhibition |
| --- | --- | --- |
| CCOCCCNC(=O)c1ccccc1-c1ncc(-c2ccccc2F)o1 | inconclusive: 25.1 µM [inhibitor, partial curve, poor fit] |  |
| O=C(c1ccccc1)N1CCC2(CC1)CC(N(Cc1ccc(F)cc1)C1CC1)CCO2 (stereo not drawn) | inactive |  |
| CN(C)c1ncc2c(n1)C(C)(C(=O)Nc1ccccc1F)CCC2 (stereo not drawn) | inconclusive: 39.8 µM [inhibitor, partial curve, poor fit] |  |
| CN1[C@@H](CCC(=O)NCc2ccccc2)CNC(=O)[C@@H]2[C@H]1CCN2Cc1csnn1 | inconclusive: 35.5 µM [inhibitor, single point] |  |
| Cc1nn(-c2ccc(C(F)(F)F)cc2)c(C)c1[C@@H]1C=C[C@@H](NCc2ccc(N(C)C)cc2)C1 | inconclusive: 31.6 µM [inhibitor, partial curve, poor fit] |  |
| CCCOc1ccc(CNC(=O)c2ccc(C)c(-n3c(C)nc4cccnc43)c2)cc1 | inconclusive: 28.2 µM [inhibitor, single point] |  |
| COc1ncccc1-c1cc2c(ccn2C(C)C)c(C(=O)NCc2c(C)cc(C)[nH]c2=O)n1 | inactive |  |
| COc1ccc(NC(=O)c2c(C)oc3ccc(O)c(CN4CCN(Cc5ccccc5)CC4)c23)cc1Cl | inconclusive: 35.5 µM [inhibitor, single point] |  |
| Cc1cccc(N2CC(C(=O)Nc3ccc(S(=O)(=O)Nc4ncccn4)cc3)CC2=O)c1C (stereo not drawn) | inactive |  |
| COc1cc(OC)c2c(C)c(CC(=O)Nc3cccc(Cl)c3)c(=O)oc2c1 | inconclusive: 25.1 µM [inhibitor, partial curve, poor fit] |  |
| O=C(c1ccccc1)N1Cc2ccccc2CC2(CCN(Cc3ccccn3)C2)C1 (stereo not drawn) | inconclusive: 0.708 µM [inhibitor, full curve, poor fit] |  |
| CN1C[C@@H]2C[C@H]1C(=O)N(Cc1ccccc1)c1ccccc1O2 | inconclusive: 39.8 µM [inhibitor, single point] |  |
| CCc1ccc(-c2noc(CSc3nc4cc5c(cc4c(=O)n3Cc3ccco3)OCO5)n2)cc1 | inactive |  |
| COc1cccc(-n2cnc3c2NC(=O)CC3c2ccccc2)c1 (stereo not drawn) | inconclusive: 22.4 µM [inhibitor, partial curve, poor fit] |  |
| CCN(CC)S(=O)(=O)c1ccc(=O)n(Cc2noc(CC(C)C)n2)c1 | inactive |  |
| CN(C)C[C@@H]1CN(Cc2ccccc2)C[C@H]1NC(=O)c1ccoc1 | inactive |  |
| CCCCOCCCNC(=O)c1cc(=O)c2ccccc2o1 | inactive |  |
| CN(C)C[C@@H]1CN(C2CCOCC2)C[C@H]1NC(=O)c1cnco1 | inconclusive: 28.2 µM [inhibitor, partial curve, poor fit] |  |
| COc1ccc(-c2cc3nc(C)c(CCC(=O)N4CCN(c5ccc(F)cc5)CC4)c(C)n3n2)c(OC)c1 | inconclusive: 35.5 µM [inhibitor, single point] |  |
| Cc1ccc(Nc2nc3ccccc3c3nnc(C)n23)c(C)c1 | inconclusive: 44.7 µM [inhibitor, single point] |  |
| Cc1oc2ccn(Cc3cccc(F)c3)c(=O)c2c1C(=O)NCc1ccccc1 | inconclusive: 14.1 µM [inhibitor, single point] |  |
